Results from the supplement of paper PMC4967469.

Tests used:
Experiment in all cases: Viability of human cancer cell lines after 72 h of drug (GDSC screen)
Tamoxifen = compound: CC/C(=C(\c1ccccc1)c1ccc(OCCN(C)C)cc1)c1ccccc1 [Tamoxifen]; conditions: top dose 5 µM
Procedure: (§1)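 Human cancer cell lines in 384-well plates, medium with 10% serum, drug for 72 h over a 256-fold dose range (nine 2-fold or five 4-fold steps up to the top dose). Adherent lines were fixed and stained with the nucleic acid dye Syto60, suspension lines read with resazurin; signal relative to control wells, capped at 0 and 100%. One two-parameter sigmoid per drug and line, fitted in a mixed model over all curves with the slope shared within a line.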

VNLG/124 = compound: CCCC(=O)OCc1ccc(OC(=O)/C=C(C)/C=C/C=C(C)/C=C/C2=C(C)CCCC2(C)C)cc1 [VNLG/124]; conditions: top dose 5.12 µM; top dose inferred
Procedure: as §1

Elesclomol = compound: CN(NC(=O)CC(=O)NN(C)C(=S)c1ccccc1)C(=S)c1ccccc1 [Elesclomol]; conditions: top dose 0.2 µM; top dose inferred
Procedure: as §1

HG-5-88-01 = compound: COc1cc(N2CCC(C(N)=O)CC2)ccc1Nc1nc(N)c(Cl)c(Nc2ccccc2S(=O)(=O)C(C)C)n1 [HG-5-88-01]; conditions: top dose 10 µM; top dose inferred
Procedure: as §1

Bleomycin = compound: Cc1c(N)nc([C@H](CC(N)=O)NC[C@H](N)C(N)=O)nc1C(=O)N[C@H](C(=O)N[C@H](C)[C@@H](O)[C@H](C)C(=O)N[C@H](C(=O)NCCc1nc(-c2nc(C(=O)NCCC[S+](C)C)cs2)cs1)[C@@H](C)O)[C@@H](OC1OC(CO)C(O)C(O)C1OC1OC(CO)C(O)C(OC(N)=O)C1O)c1cnc[nH]1 [Bleomycin]
Procedure: as §1

Masitinib = compound: Cc1ccc(NC(=O)c2ccc(CN3CCN(C)CC3)cc2)cc1Nc1nc(-c2cccnc2)cs1 [Masitinib]; conditions: top dose 20 µM
Procedure: as §1

LAQ824 = compound: O=C(/C=C/c1ccc(CN(CCO)CCc2c[nH]c3ccccc23)cc1)NO [LAQ824]; conditions: top dose 1.024 µM; top dose inferred
Procedure: as §1

OSI-930 = compound: O=C(Nc1ccc(OC(F)(F)F)cc1)c1sccc1NCc1ccnc2ccccc12 [OSI-930]; conditions: top dose 10.24 µM
Procedure: as §1

BX-912 = compound: O=C(Nc1cccc(Nc2ncc(Br)c(NCCc3cnc[nH]3)n2)c1)N1CCCC1 [BX-912]; conditions: top dose 10.24 µM; top dose inferred
Procedure: as §1

NSC-87877 = compound: O=S(=O)(O)c1ccc2cc(N=Nc3cc(S(=O)(=O)O)c4cccnc4c3O)ccc2c1 [NSC-87877]; conditions: top dose 16 µM; top dose inferred
Procedure: as §1

[1] = top dose 50 µM, screen: GDSC drug entry 1378, top dose inferred
[2] = top dose 64 µM, screen: GDSC drug entry 190

Row | Cell Line | AUC (Tamoxifen) | IC50 (Tamoxifen) [µM] | AUC (VNLG/124) | IC50 (VNLG/124) [µM] | AUC (Elesclomol) | IC50 (Elesclomol) [µM] | AUC (HG-5-88-01) | IC50 (HG-5-88-01) [µM] | AUC (Bleomycin; [1]) | IC50 (Bleomycin; [1]) [µM] | AUC (Bleomycin; [2]) | IC50 (Bleomycin; [2]) [µM] | AUC (Masitinib) | IC50 (Masitinib) [µM] | AUC (LAQ824) | IC50 (LAQ824) [µM] | AUC (OSI-930) | IC50 (OSI-930) [µM] | AUC (BX-912) | IC50 (BX-912) [µM] | AUC (NSC-87877) | IC50 (NSC-87877) [µM]
1 | EW-16 (Ewing sarcoma, adherent) | 0.973 | > 5 | 0.893 | > 5.12 | 0.244 | 0.0022 | 0.726 | 2.84 | 0.364 | 1.29 | 0.052 | < 0.25 | 0.87 | > 20 | 0.311 | 0.0184 | 0.952 | > 10.2 | 0.883 | > 10.2 | 0.981 | > 16
2 | SIMA (neuroblastoma, adherent) | 0.984 | > 5 | 0.978 | > 5.12 | 0.617 | 0.0274 | 0.909 | > 10 | 0.569 | 4.95 | 0.606 | 8.12 | 0.862 | > 20 | 0.613 | 0.137 | 0.973 | > 10.2 | 0.935 | > 10.2 | 0.971 | > 16
3 | KU-19-19 (bladder, adherent) | 0.977 | > 5 | 0.987 | > 5.12 | 0.403 | 0.00677 | 0.931 | > 10 | 0.178 | 0.333 | 0.934 | > 64 | 0.985 | > 20 | 0.514 | 0.07 | 0.979 | > 10.2 | 0.973 | > 10.2 | 0.978 | > 16
4 | RC-K8 (B-cell lymphoma, suspension) | 0.965 | > 5 | 0.993 | > 5.12 | 0.949 | > 0.2 | 0.991 | > 10 | 0.977 | > 50 | 0.818 | 30.2 | 0.99 | > 20 | 0.592 | 0.11 | 0.992 | > 10.2 | 0.993 | > 10.2 | 0.99 | > 16
5 | H2595 (mesothelioma, adherent) | 0.966 | > 5 | 0.933 | > 5.12 | 0.671 | 0.0455 | 0.914 | > 10 | 0.578 | 5.54 | 0.266 | 0.648 | 0.979 | > 20 | 0.488 | 0.0585 | 0.974 | > 10.2 | 0.972 | > 10.2 | 0.978 | > 16
6 | huH-1 (liver, adherent) | 0.982 | > 5 | 0.975 | > 5.12 | 0.459 | 0.0094 | 0.9 | > 10 | 0.783 | 26.5 | 0.926 | > 64 | 0.947 | > 20 | 0.681 | 0.234 | 0.971 | > 10.2 | 0.984 | > 10.2 | 0.984 | > 16
7 | NB10 (neuroblastoma, adherent) | 0.987 | > 5 | 0.984 | > 5.12 | 0.57 | 0.0193 | 0.89 | > 10 | 0.227 | 0.512 | 0.655 | 10.6 | 0.941 | > 20 | 0.566 | 0.0962 | 0.958 | > 10.2 | 0.929 | > 10.2 | 0.979 | > 16
8 | SK-MM-2 (myeloma, suspension) | 0.986 | > 5 | 0.863 | 4.74 | 0.965 | > 0.2 | 0.778 | 4.23 | 0.979 | > 50 | 0.771 | 25.7 | 0.832 | 13.5 | 0.155 | 0.00519 | 0.966 | > 10.2 | 0.915 | > 10.2 | 0.979 | > 16
9 | CaR-1 (large intestine, adherent) | 0.963 | > 5 | 0.973 | > 5.12 | 0.862 | > 0.2 | 0.935 | > 10 | 0.249 | 0.4 | 0.392 | 1.74 | 0.94 | > 20 | 0.624 | 0.167 | 0.966 | > 10.2 | 0.914 | > 10.2 | 0.976 | > 16
10 | NMC-G1 (glioma, adherent) | 0.961 | > 5 | 0.973 | > 5.12 | 0.584 | 0.0224 | 0.819 | 7.4 | 0.154 | 0.196 | 0.109 | < 0.25 | 0.849 | > 20 | 0.517 | 0.0721 | 0.974 | > 10.2 | 0.901 | > 10.2 | 0.978 | > 16
11 | TT2609-C02 (thyroid, adherent) | 0.985 | > 5 | 0.975 | > 5.12 | 0.643 | 0.0321 | 0.985 | > 10 | 0.806 | 27.4 | 0.154 | 0.312 | 0.923 | > 20 | 0.256 | 0.0121 | 0.963 | > 10.2 | 0.8 | 5.35 | 0.882 | > 16

The IC50 comes from the fitted curve, where viability falls to half of the control; a limit (>, <) means that the fit lies beyond the doses tested. AUC, from the same fit, is the share of area under the viability curve across the 256-fold dose range; it is 1 without any effect and falls as sensitivity rises. For some assays here: The top dose, if marked as inferred, comes from the curve model; the source does not state it. For some assays here: Where an entry number is given, a second screen of the drug exists; the two often differ.
